Results reported in PMC4654616 (ACS chemical biology, 2015).

Molecular target: urokinase receptor (uPAR) without the GPI anchor (UniProt Q03405, in part)
Experiment: SPR

B1: amino-terminal fragment of uPA (uPAATF) (domain or fragment)
chain: not shown
Q: How did the Kd turn out when B1 was run?
A: Its Kd is 25.1 nM.
